Measured values published in PMC4336329 (PLoS ONE, 2015).
Out of some 310,000 compounds screened, about 14,000 (4.5%) showed an effect of 50% or more. The effect is printed as a negative number. This is one part of the list.

Biological target: human ether-à-go-go-related gene (hERG) potassium channel (human, UniProt Q12809)
Test: primary screen, population patch clamp on CHO cells stably expressing hERG
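Note: peak tail current of the secondary pulse compared with the same well before compound.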

Chain of human ether-à-go-go-related gene (hERG) potassium channel (Q12809 whole entry, looked up): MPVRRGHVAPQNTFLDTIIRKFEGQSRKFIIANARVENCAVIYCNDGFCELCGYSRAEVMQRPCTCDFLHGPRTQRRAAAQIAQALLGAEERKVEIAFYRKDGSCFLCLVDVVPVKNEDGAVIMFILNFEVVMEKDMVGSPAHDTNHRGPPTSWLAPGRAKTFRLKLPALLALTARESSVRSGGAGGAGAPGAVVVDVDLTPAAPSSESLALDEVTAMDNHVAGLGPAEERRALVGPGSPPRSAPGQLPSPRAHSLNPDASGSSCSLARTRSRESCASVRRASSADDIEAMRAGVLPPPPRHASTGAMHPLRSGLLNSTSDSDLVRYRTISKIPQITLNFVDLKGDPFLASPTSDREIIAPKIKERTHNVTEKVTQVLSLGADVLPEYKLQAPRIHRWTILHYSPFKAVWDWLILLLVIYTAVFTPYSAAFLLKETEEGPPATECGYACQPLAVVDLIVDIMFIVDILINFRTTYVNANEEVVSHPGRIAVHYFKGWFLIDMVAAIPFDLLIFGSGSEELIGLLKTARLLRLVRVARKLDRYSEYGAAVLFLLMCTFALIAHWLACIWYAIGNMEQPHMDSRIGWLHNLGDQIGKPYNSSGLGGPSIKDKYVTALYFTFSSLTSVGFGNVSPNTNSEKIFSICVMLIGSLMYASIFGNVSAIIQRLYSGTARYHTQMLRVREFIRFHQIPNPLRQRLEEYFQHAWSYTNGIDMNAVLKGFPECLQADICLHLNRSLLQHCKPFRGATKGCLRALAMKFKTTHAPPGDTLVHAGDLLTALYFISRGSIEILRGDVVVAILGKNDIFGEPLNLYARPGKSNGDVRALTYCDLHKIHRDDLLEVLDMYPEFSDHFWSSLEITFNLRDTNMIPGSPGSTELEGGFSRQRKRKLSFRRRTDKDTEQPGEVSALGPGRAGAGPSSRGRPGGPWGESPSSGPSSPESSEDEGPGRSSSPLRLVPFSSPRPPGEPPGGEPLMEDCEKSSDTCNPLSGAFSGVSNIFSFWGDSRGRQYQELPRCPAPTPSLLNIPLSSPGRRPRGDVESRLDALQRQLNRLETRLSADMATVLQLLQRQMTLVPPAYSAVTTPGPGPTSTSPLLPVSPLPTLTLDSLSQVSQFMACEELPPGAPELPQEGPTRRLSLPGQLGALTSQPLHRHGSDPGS

SMILES	hERG current change (%, negative = inhibition) at 10uM [%]
Cc1cnc(C(=O)OCC(=O)NC23CC4CC(CC(C4)C2)C3)cn1	-14.9
CN(CC(=O)Nc1ccc(F)cc1)c1ccc(S(=O)(=O)N2CCCC2)cn1	-14
CCN(CC)c1ccc(NC(=S)NC(=O)Cc2ccccc2)cc1	13.5
CC(=O)c1ccc(N=Nc2ccc(N(C)C)cc2)cc1	18.6
Oc1ccc(/C=C/c2ccc3ccccc3n2)cc1	45.6
COc1ccc(NC(=S)N2CCN(Cc3ccco3)CC2)c(OC)c1	-1.37
COc1ccc2oc(=O)c(C(=O)Nc3cccc(C)c3)cc2c1	13.6
O=C(c1cccc(Br)c1)N1CCN(c2ccc(N3CCOCC3)nn2)CC1	-25.2
O=C(/C=C/c1ccco1)NC(=S)Nc1ccccc1O	20.3
N#Cc1ccc(-c2ccc(C3Nc4ccccc4C(=O)N3O)o2)cc1 (stereo not drawn)	-5.97
CCOC(=O)c1ccc(S(=O)(=O)NC2CC2)cc1	5.21
Cc1ccc(Cl)cc1-c1ccc(/C=N/n2cnnc2)o1	-13
COC(=O)c1c(NC(=O)C2C3CCC(O3)C2C(=O)O)sc2c1CCCCCC2 (stereo not drawn)	-4.13
Cn1ccsc1=NC(=O)c1ccc(Cl)cc1	8.31
N#C/C(=C\Nc1ccccc1SC(F)(F)F)c1nc(-c2ccc(Cl)cc2)cs1	16.1
COc1ccc(C2c3ccc(O)cc3Oc3ncn(CCN4CCOCC4)c(=N)c32)cc1 (stereo not drawn)	-28.1
CCOc1cc(NC(=O)C2CCCO2)c(OCC)cc1NC(=O)C1CC1 (stereo not drawn)	-14.6
NC1=C(c2ccc([N+](=O)[O-])cc2)C(=O)CO1	3.56
Cc1ccc(C(=O)N/C(=C\c2ccco2)C(=O)NCCCn2ccnc2)cc1C	-39.8
COC(=O)C1(CO)NC(c2cccs2)C2C(=O)N(c3ccccc3)C(=O)C21 (stereo not drawn)	9.63
COc1ccccc1N1C(=O)CC(N2CCN(c3ccc([N+](=O)[O-])cc3)CC2)C1=O (stereo not drawn)	-68.6
CCOc1cc(/C=N/NC(=O)c2cc(C3CC3)[nH]n2)ccc1O	-14.8
COc1ccc(OCC(O)CN2CCC(CN3C(=O)c4cccc5cccc(c45)C3=O)CC2)cc1.Cl (stereo not drawn)	-59.1

SMILES	hERG current change (%, negative = inhibition) at 10uM [%]
CC(C)c1cccc(C2=CC(=O)C[C@H](c3ccc(F)cc3)C2)c1	1.48
COC(=O)c1ccc(NC(=O)c2cccc(OC)c2)cc1	-3.77
O=C(NCCN1CCN(C(=O)c2ccc([N+](=O)[O-])cc2)CC1)C(=O)NCc1ccccc1	-78.9
CCOC(=O)CNC(=O)CN1CCC(c2nc3ccccc3[nH]2)CC1	13.7
Cn1c2ccccc2c(=O)c2cc(C#CC3=CCCCC3)ccc21	8.87
Cc1ccc(S(=O)(=O)N2CCOCC2)cc1C(=O)NCCCn1ccnc1	15.6
O=C1N/C(=C/c2cccn2-c2ccccc2)C(=O)N1c1cccc(Cl)c1	5.89
COc1ccc(NS(=O)(=O)c2cc(NC(=O)c3cnc(C)cn3)ccc2N2CCCCC2)cc1	15.3
Cc1cc(C)n2nc(C(=O)OCC(=O)N3CCC3)nc2n1	21.4
Cc1cc(C(=O)NC2CCCc3c2cnn3-c2ccc(C)c(C)c2)nc(C)n1 (stereo not drawn)	-4.32
COc1ccc(CCNC(=O)CN2CCN(c3ccccc3Cl)CC2)cc1	-19
Cc1ccc(OCCNC(=O)CNC(=O)c2ccc(C)cc2)cc1	9.37
Cc1cc(OC(=O)c2ccc(S(=O)(=O)N3CCCCC3)cc2)c([N+](=O)[O-])c(=O)[nH]1	25.7
CCCNC(=O)C1CCN(S(=O)(=O)c2ccc(Br)cc2)CC1	-1.78
O=c1c(Cl)c(N2CCNCC2)cnn1C12CC3CC(CC(C3)C1)C2	10.4
COc1ccccc1N1CCN(C(=O)c2cc3c(s2)CCC3)CC1	-16
O=C(CSc1nc(C2CCCCC2)n(-c2ccccc2)n1)NCC(F)(F)F	-19.6
COc1ccc(C(CNC(=O)COc2cc(C)ccc2Cl)N2CCCCC2)cc1 (stereo not drawn)	1.57
O=C(Nc1cccc2ccccc12)N1CCc2ccccc2C1	-11.4
Cc1cc(/C=C2\C(=O)NC(=O)N(c3ccc(Br)cc3)C2=O)c(C)n1C	-3.27
Cc1nc(-c2ccccc2)sc1C(=O)NN	25.2
CCC1(CC)NC(=O)N(CC(=O)N2CCN(c3ccccc3F)CC2)C1=O	9.58
